{
  "source": "PubChem BioAssay AID686978",
  "about": "(National Center for Advancing Translational Sciences (NCATS), 2013)",
  "note": "Several values for one entry are separate records, joined by “and”; a condition that tells them apart may be missing. Equal entries are not always repeated. Hit rate of the full screen: of about 420,000 compounds, about 64,000 (15%) were called active. The inconclusive results got no clear call from the source; some entries with a clear call stand among them for comparison. The call rests on the fitted dose curve; in most records, active means well fitted inhibition curve with a large enough effect; inconclusive means small, poorly fitted or top-dose-only effect; inactive means flat fitted curve, though single readings scatter. Potencies beside an inconclusive call are fits to weak or partial responses and may not hold up. On the % scale 0 is the no-effect control and ±100 the full control effect; potency means the concentration at half of the fitted maximal effect; tags describe the fitted curve by direction and shape.",
  "data": [
    {"test": "qHTS for Inhibitors of human tyrosyl-DNA phosphodiesterase 1 (TDP1): qHTS in cells in absence of CPT; further: nearly all actives have a fitted effect of over 55% in size", "settings": "DT40 Tdp1-/- hTDP1 cells, no CPT, ATP luminescence, 48 h; activity change, negative = growth inhibition: at 46.2 µM (top of the series) unless noted", "outline": "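No-CPT arm: Tdp1-/-;hTDP1 DT40 cells (400/well) plus compounds, incubated ≥48 hr at 37 °C. Readout CellTiter-Glo luminescence.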", "values": [
      {"smiles": "CCOC(=O)c1cc(C)n(Cc2ccccc2)c1C", "activity change, negative = growth inhibition": "inactive: -9.2%"},
      {"smiles": "CCOC(=O)c1sc(NC(=O)CC(C)c2ccccc2)nc1C", "note": "(configuration not stated)", "Potency": "active: 3.66 µM"},
      {"smiles": "CNC(=S)N/N=C(\\C)c1ccccc1", "Potency": "active: 13 µM"},
      {"smiles": "Cc1c(C(=O)N(C)Cc2cscn2)sc2ncnc(NC[C@H]3CCc4ccccc4O3)c12", "Potency": "inconclusive: 25.9 µM [inhibitor, single point]"},
      {"smiles": "O=c1ccc2cc(S(=O)(=O)N3CCN(c4ccccc4F)CC3)ccc2o1", "activity change, negative = growth inhibition": "inactive: -29.7%"},
      {"smiles": "CC(C)COC(=O)N1CCCC1C(=O)O", "note": "(configuration not stated)", "activity change, negative = growth inhibition": "inactive: -17.9%"},
      {"smiles": "COc1ccc(NC(=O)c2cccnc2SC)cc1S(=O)(=O)N1CCCCC1", "activity change, negative = growth inhibition": "inconclusive: -32.4% [inhibitor]"},
      {"smiles": "O=C(Nc1cccc(Br)c1)c1cc(=O)c2ccccc2o1", "activity change, negative = growth inhibition": "inconclusive: -30.5% [inhibitor]"},
      {"smiles": "Cc1ccc2sc(-c3ccc(NC(=O)c4cc(-n5cnnc5)ccc4Cl)cc3)nc2c1", "Potency": "active: 9.2 µM"},
      {"smiles": "O=C(NCCCO)C(=O)Nc1ccc2c(c1)N(S(=O)(=O)c1cccs1)CCC2", "Potency": "inconclusive: 29.1 µM [inhibitor, single point]"},
      {"smiles": "OCCc1ccc(NCCc2ccco2)cc1", "activity change, negative = growth inhibition": "inactive: -7.84%"},
      {"smiles": "COc1ccc(-c2nnn(Cc3ccccc3F)n2)cc1", "Potency": "inconclusive: 5.8 µM [inhibitor, single point]"},
      {"smiles": "O=C(Nc1ccccc1C(=O)N1CCCCC1)c1nsc2ccccc12", "Potency": "inconclusive: 29.1 µM [inhibitor, single point]"},
      {"smiles": "CCCCCc1ccc(-c2cn(Cc3cccc(OC)c3)nn2)cc1", "Potency": "inconclusive: 35.5 µM [inhibitor, single point] and inconclusive: 20.6 µM [inhibitor, partial curve, poor fit]"},
      {"smiles": "CCOC(=O)[C@]12CCCC=C1N(Cc1cccc3ccccc13)C(=O)[C@H](CC(=O)NCc1ccc(OC)c(OC)c1)C2", "Potency": "active: 16.4 µM"},
      {"smiles": "O=S(=O)(NC1CCCCCCC1)c1ccccc1F", "Potency": "inconclusive: 18.4 µM [inhibitor, single point]"},
      {"smiles": "CCc1ccc(NC(=O)c2cc(=O)c3ccc(C)c(C)c3o2)cc1", "Potency": "active: 3.26 µM"},
      {"smiles": "COc1ccc(C2c3ccc4ccccc4c3Oc3ncn(CCO)c(=N)c32)cc1OC", "note": "(configuration not stated)", "Potency": "active: 20.6 µM"},
      {"smiles": "CCOC(=O)N1CCC(NC(=O)C2CCC(CNS(=O)(=O)c3ccc(OC)cc3)CC2)CC1", "note": "(configuration not stated)", "Potency": "inconclusive: 29.1 µM [inhibitor, single point]"},
      {"smiles": "N#Cc1cccnc1N1CCN(C(=O)c2cccs2)CC1", "activity change, negative = growth inhibition": "inactive: -0.749%"},
      {"smiles": "CC(=O)c1cccc(NS(C)(=O)=O)c1", "activity change, negative = growth inhibition": "inactive: 1.24%"},
      {"smiles": "Cc1nn(Cc2ccccc2)c(C)c1/C=N/NC(=O)CNc1cccc(C(F)(F)F)c1", "Potency": "inconclusive: 23.1 µM [inhibitor, single point]"},
      {"smiles": "CCCCOc1cccc(C2c3c(-c4cc(C)ccc4O)n[nH]c3C(=O)N2CCOC)c1", "note": "(configuration not stated)", "Potency": "inconclusive: 20.6 µM [inhibitor, single point]"},
      {"smiles": "CCCCCOc1ccc(/C=C/C(=O)Nc2sc3c(c2C(=O)OCC)CCC3)cc1OC", "Potency": "inconclusive: 2.59 µM [inhibitor, single point]"},
      {"smiles": "CC(OC(=O)c1nn(C)c(=O)c2ccccc12)C(=O)Nc1ccc(S(N)(=O)=O)cc1", "note": "(configuration not stated)", "activity change, negative = growth inhibition": "inactive: -2.06%"},
      {"smiles": "Cc1cccc(N(Cc2ccccc2)C(=O)Cc2ccc(S(=O)(=O)N3CCOCC3)s2)c1", "Potency": "active: 23.1 µM"},
      {"smiles": "O=[N+]([O-])c1ccccc1/C=N/Nc1nc(N2CCCC2)nc(N2CCCC2)n1", "Potency": "inconclusive: 20.6 µM [inhibitor, single point]"},
      {"smiles": "Cc1cccc(C)c1NC(=O)CN(C)C(=O)C1CC(=O)N(c2cccc3ccccc23)C1", "note": "(configuration not stated)", "activity change, negative = growth inhibition": "inactive: 3.11%"},
      {"smiles": "O=C(c1ccc(CNS(=O)(=O)c2ccccc2)cc1)N1CCN(c2ccccn2)CC1", "Potency": "inconclusive: 29.1 µM [inhibitor, single point]"},
      {"smiles": "CCOC(=O)c1[nH]c2ccc(F)cc2c1NC(=O)C1=COCCO1", "Potency": "inconclusive: 20.6 µM [inhibitor, partial curve]"},
      {"smiles": "COC(=O)c1ccc2c(=O)[nH]c(COC(=O)c3[nH]c(C)c(C(C)=O)c3C)nc2c1", "Potency": "active: 16.4 µM"},
      {"smiles": "C#CCOCCOCCOCCNc1nc(N2CCN(C(=O)C(Cc3cc4ccccc4[nH]3)n3cc(C(N)Cc4ccc(O)cc4)nn3)CC2)nc(N2CCN(C(=O)C(Cc3cc4ccccc4[nH]3)n3cc(C(N)Cc4ccc(O)cc4)nn3)CC2)n1", "note": "(configuration not stated)", "activity change, negative = growth inhibition": "inactive: 3.38%"},
      {"smiles": "COc1cc(C(=O)Oc2cccc(Nc3ncnc4ccccc34)c2)cc(OC)c1OC", "Potency": "active: 16.4 µM"},
      {"smiles": "Cc1cccc(C)c1NC(=O)CN(C)C(=O)[C@H](C)NC(=O)c1ccco1", "activity change, negative = growth inhibition": "inactive: 1.07%"},
      {"smiles": "O=C(O)c1ccc(NN=CC2=C(N3CCOCC3)/C(=C/c3ccccc3)CC2)cc1", "Potency": "active: 3.26 µM"},
      {"smiles": "O=C(NC1CCCCC1)C(c1ccncc1)N(C(=O)c1csnn1)c1ccccc1", "note": "(configuration not stated)", "activity change, negative = growth inhibition": "inactive: -15.5%"},
      {"smiles": "COc1ccc(C(=O)C[n+]2ccccc2Cl)cc1", "Potency": "inconclusive: 22.4 µM [inhibitor, single point]"},
      {"smiles": "Cc1ccc(NC(=O)NCC(c2ccccc2)N(C)C)cc1", "note": "(configuration not stated)", "activity change, negative = growth inhibition": "inactive: 2.64%"},
      {"smiles": "CN(C)CCN1CCN(c2cc(-c3cccc(Cl)c3)nc3ccnn23)CC1", "Potency": "inconclusive: 29.1 µM [inhibitor, single point]"},
      {"smiles": "Cc1nc2cnc(N3CCN(C)CC3)nc2n(CCc2ccccc2)c1=O", "Potency": "inconclusive: 14.6 µM [inhibitor, single point]"},
      {"smiles": "CS(=O)(=O)N1CCC(Oc2cccc(C(=O)NCCCC3CCCC3)c2)CC1", "Potency": "active: 20.6 µM"},
      {"smiles": "CCC(=O)N1CCN(c2ccccc2NC(=O)COc2cccc(C)c2C)CC1", "Potency": "inconclusive: 29.1 µM [inhibitor, single point]"},
      {"smiles": "Cc1onc(-c2ccccc2Cl)c1C(=O)N(C)CC(=O)Nc1ccc(F)c(F)c1F", "Potency": "inconclusive: 29.1 µM [inhibitor, single point]"},
      {"smiles": "Cc1cccc(N2CCN(CCCNc3ncnc4onc(-c5ccc(F)cc5)c34)CC2C)c1", "note": "(configuration not stated)", "Potency": "active: 20.6 µM"},
      {"smiles": "COc1ccc(C(=O)c2c(C)c3cc(C)ccc3n2CC(O)CN2CCOCC2)cc1", "note": "(configuration not stated)", "Potency": "inconclusive: 29.1 µM [inhibitor, single point]"},
      {"smiles": "Cc1cc(C(F)(F)F)n(-c2ccc(N)cc2)n1", "activity change, negative = growth inhibition": "inactive: -3.51%"},
      {"smiles": "CC[N+](C)(CC)CCC(c1ccccc1)C1CCCCC1", "note": "(configuration not stated)", "Potency": "inconclusive: 23.1 µM [inhibitor, single point]"},
      {"smiles": "c1cn(-c2ccc(-c3ccnc4ncnn34)cc2)cn1", "activity change, negative = growth inhibition": "inactive: -0.574%"},
      {"smiles": "COc1ccc(-c2cn[nH]c2-c2ccc(O)cc2O)cc1OC", "Potency": "inconclusive: 9.2 µM [inhibitor, partial curve]"},
      {"smiles": "O=C(CCNS(=O)(=O)c1ccc2c(c1)CCN2C(=O)C1CC1)Nc1ccc(OC(F)(F)F)cc1", "Potency": "inconclusive: 4.61 µM [inhibitor, partial curve]"},
      {"smiles": "COc1cccc(C(=O)Nc2ccc3nc(SCCOc4ccccc4)sc3c2)c1", "Potency": "inconclusive: 2.31 µM [inhibitor, full curve]"},
      {"smiles": "CC(C)(C(=O)N1CCC1(C)C(=O)NS(=O)(=O)c1ccc(C#N)cc1)c1ccccc1", "note": "(configuration not stated)", "activity change, negative = growth inhibition": "inactive: -17.1%"},
      {"smiles": "COc1ccc(N(CC(=O)NCc2ccccc2OC)S(=O)(=O)c2ccccc2[N+](=O)[O-])c(OC)c1", "Potency": "inconclusive: 29.1 µM [inhibitor, single point]"},
      {"smiles": "Cc1c(/C(O)=C2/C(=O)C(=O)N(CCN3CCOCC3)C2c2cccs2)cnn1-c1ccccc1", "note": "(configuration not stated)", "activity change, negative = growth inhibition": "inactive: 7.79%"},
      {"smiles": "O=C(C1CCCN(Cc2ccccc2F)C1)N1CCCCC1", "note": "(configuration not stated)", "activity change, negative = growth inhibition": "inactive: -7.93%"},
      {"smiles": "O=c1ccc(Cl)cn1Cc1ccccc1F", "activity change, negative = growth inhibition": "inactive: -0.741%"},
      {"smiles": "CNC(=O)/C(C#N)=C\\c1cc(C)n(-c2ccc(N3CCOCC3)cc2)c1C", "Potency": "inconclusive: 2.59 µM [inhibitor, full curve]"},
      {"smiles": "Cc1cc2cc(C(c3nnnn3Cc3ccccc3)N3CCc4ccccc43)c(=O)[nH]c2cc1C", "note": "(configuration not stated)", "Potency": "inconclusive: 18.4 µM [inhibitor, single point]"},
      {"smiles": "CC(=O)Nc1ccc(S(=O)(=O)NC2=NCN(c3cccc([N+](=O)[O-])c3)CN2)cc1", "activity change, negative = growth inhibition": "inactive: -5.86%"},
      {"smiles": "Cc1ccc(OCCNc2ccc(C(F)(F)F)cc2[N+](=O)[O-])cc1", "activity change, negative = growth inhibition": "inconclusive: -32.5% [inhibitor]"},
      {"smiles": "N#Cc1c(N)n(C2CCCCC2)c2nc3ccccc3nc12", "Potency": "inconclusive: 13 µM [inhibitor, partial curve]"},
      {"smiles": "CC1(C)NC(=O)N(CC(=O)N2CCN(c3cccc(C(F)(F)F)c3)CC2)C1=O", "Potency": "inconclusive: 20.6 µM [inhibitor, partial curve, poor fit]"},
      {"smiles": "COc1ccc(CN(C)C(=O)c2cccc(S(=O)(=O)NCc3ccccc3)c2)cc1F", "activity change, negative = growth inhibition": "inactive: 7.95%"},
      {"smiles": "COc1cccc(CNc2nc3cc(-c4ccc(F)cc4)sc3c(=O)n2C)c1OC", "Potency": "active: 16.4 µM"},
      {"smiles": "O=C(CCN1C(=O)/C(=C\\c2cccc(Br)c2)SC1=S)NCCCN1CCOCC1", "Potency": "inconclusive: 20.6 µM [inhibitor, single point]"},
      {"smiles": "CC(C)Cn1c(N)c(C(=O)NCCN2CCOCC2)c2nc3ccccc3nc21", "Potency": "active: 18.4 µM"},
      {"smiles": "CS(=O)(=O)N(CC(=O)NC1CC2CCC1C2)c1ccc(Oc2ccccc2)cc1", "note": "(configuration not stated)", "Potency": "inconclusive: 23.1 µM [inhibitor, partial curve, poor fit]"},
      {"smiles": "CN(C)CCNc1ccc(CO)c2oc3ccc(O)cc3c(=O)c12", "Potency": "active: 0.651 µM"},
      {"smiles": "Cc1ccc(OCc2cc(C(=O)N3CCN(CC(=O)NC(C)C)CC3)no2)cn1", "activity change, negative = growth inhibition": "inactive: 4.59%"},
      {"smiles": "CCNc1nc(NC(C)C)nc(OCCNS(=O)(=O)c2cc(C)ccc2C)n1", "Potency": "inconclusive: 18.4 µM [inhibitor, single point]"},
      {"smiles": "CCOc1ccc(NC2c3ccccc3C(=O)N2Cc2ccc3c(c2)OCO3)cc1", "note": "(configuration not stated)", "Potency": "active: 16.4 µM"},
      {"smiles": "CCN(CC(=O)Nc1ccc(OC)cc1)CC(=O)Nc1cccc(S(=O)(=O)N2CCOCC2)c1", "Potency": "inconclusive: 29.1 µM [inhibitor, single point]"}
    ]}
  ]
}
